Experimental data taken from article PMC10110421.
Results are given in words; binding and its absence hold for the method and conditions named. In cells and extracts the contact can be indirect. Some binding calls cover weakened binding; strength is not graded here. For some of these results: Tags and fused reporters may be left off the sequences shown. Blank lines part the entries; values can stand above or below the substance they belong to.

Assays:
[1] = molecular target: mCherry-fused IFT54(533–625) (human) (UniProt Q8TDR0); experiment: co-IP; VIP assay and immunoblotting: lysates (HMDEKN buffer) of HEK293T cells co-expressing EGFP- and mCherry-fused proteins, precipitated with GST-tagged anti-mCherry nanobody (LaM-2) on glutathione–Sepharose beads
[2] = molecular target: mCherry–IFT54 (full-length IFT54 construct) (human) (UniProt Q8TDR0); experiment: as above
[3] = molecular target: mCherry-fused IFT54(135–625) (human) (UniProt Q8TDR0); experiment: as above
[4] = molecular target: mCherry-fused IFT54(1–134) (human) (UniProt Q8TDR0); experiment: as above
[5] = molecular target: mCherry-fused IFT54(1–334) (human) (UniProt Q8TDR0); experiment: as above
EGFP-fused WDR34 = EGFP-fused WDR34 (UniProt Q96EX3); experiment: co-IP; VIP assay and immunoblotting: lysates (HMDEKN buffer) of HEK293T cells co-expressing EGFP- and mCherry-fused proteins, precipitated with GST-tagged anti-GFP nanobody on glutathione–Sepharose beads; red signal on beads, then blots with anti-mCherry and anti-GFP
EGFP–DYNC2LI1 = EGFP–DYNC2LI1 (UniProt Q8TCX1); experiment: as above
[6] = molecular target: EGFP–WDR60 (wild type, full-length construct) (human) (UniProt Q8WVS4); experiment: as above
[7] = molecular target: EGFP-fused WDR60(523–1066) (human) (UniProt Q8WVS4); experiment: as above

binding [1]: binds
binding [2]: binds
Substance: EGFP-IFT20 (from UniProt Q8IY31 1-132)

binding [3]: no binding
binding [4]: binds
binding [5]: binds
binding [2]: binds
Substance: EGFP–WDR60 (wild type, full-length construct) (from UniProt Q8WVS4 1-1066)

binding (EGFP-fused WDR34): binds
binding (EGFP–DYNC2LI1): binds
binding [6]: binds
Substance: mCherry–IFT172 (from UniProt Q9UG01 1-1749)

binding [7]: binds weakly
Substance: mixture of mCherry-fused DYNLRB1 and DYNLRB2 (co-expressed) (from UniProt Q9NP97 1-96; Q8TF09 1-96) (complex)
